# This is one part of the list.
# B1: MIC4-A5 (Toxoplasma gondii), Q9XZH7 (protein)
# chain: SPDFHDEVECVHTGNIGSKAQTIGEVKRASSLSECRARCQAEKECSHYTYNVKSGLCYPKRGKPQFYKYLGDMTGSRTCDTS
# What was measured:
# Assay in all cases: glycan array binding signal (z-score within array); higher = stronger binding
# Details in all cases: glycan notation: IUPAC condensed, linker removed
# [1] = target: Man(b1-4)Man(b1-4)Man(b1-4)Man(b1-4)Man(b1-4)Man
# Summary of the method: (§1)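 Glycan array data were curated from 3228 arrays in the Consortium for Functional Glycomics database and kept only where the protein sequence was available. Glycan names were converted to IUPAC-condensed notation, and columns mapping to the same glycan were averaged. The binding signal is a within-array Z-score, averaged across arrays of the same protein sequence at different concentrations or buffers and across linkers. Negative Z-scores can be read as non-binding.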
# [2] = target: Man6P(a1-3)Man(a1-3)Man(a1-3)Man(a1-2)Man
# Summary of the method: as §1
# [3] = target: Neu(a2-3)Gal(b1-4)Glc
# Summary of the method: as §1
# [4] = target: Neu(a2-3)Gal(b1-4)GlcNAc(b1-3)Gal(b1-4)[Fuc(a1-3)]GlcNAc(b1-3)Gal(b1-4)Glc
# Summary of the method: as §1
# [5] = target: Neu(a2-3)Gal(b1-4)GlcNAc6S(b1-3)Gal(b1-4)Glc
# Summary of the method: as §1
# [6] = target: Neu(a2-3)Gal(b1-4)[Fuc(a1-3)]GlcNAc(b1-3)Gal(b1-4)Glc
# Summary of the method: as §1
# [7] = target: Neu(a2-3)Gal(b1-4)[Fuc(a1-3)]GlcNAc6S(b1-3)Gal(b1-4)Glc
# Summary of the method: as §1
# [8] = target: Neu(a2-3)Gal6S(b1-4)[Fuc(a1-3)]GlcN(b1-3)Gal(b1-4)Glc
# Summary of the method: as §1
# [9] = target: Neu(a2-6)Gal(b1-4)Glc
# Summary of the method: as §1
# [10] = target: Neu4Ac5Ac(a2-3)Gal(b1-4)Glc
# Summary of the method: as §1
# [11] = target: Neu5Ac(a2-3)Gal
# Summary of the method: as §1
# [12] = target: Neu5Ac(a2-3)Gal(b1-3)GalNAc(b1-4)[Neu5Ac(a2-3)]Gal(b1-4)Glc
# Summary of the method: as §1
# [13] = target: Neu5Ac(a2-3)Gal(b1-3)GalNAc(b1-4)[Neu5Ac(a2-8)Neu5Ac(a2-3)]Gal(b1-4)Glc
# Summary of the method: as §1
# [14] = target: Neu5Ac(a2-3)Gal(b1-3)GlcNAc
# Summary of the method: as §1
# [15] = target: Neu5Ac(a2-3)Gal(b1-3)GlcNAc(b1-3)Gal(b1-4)Glc
# Summary of the method: as §1
# [16] = target: Neu5Ac(a2-3)Gal(b1-3)GlcNAc(b1-3)[Fuc(a1-3)[Gal(b1-4)]GlcNAc(b1-6)]Gal(b1-4)Glc
# Summary of the method: as §1
# [17] = target: Neu5Ac(a2-3)Gal(b1-3)[Fuc(a1-4)]GlcNAc
# Summary of the method: as §1
# [18] = target: Neu5Ac(a2-3)Gal(b1-3)[Fuc(a1-4)]GlcNAc(b1-3)Gal(b1-4)Glc
# Summary of the method: as §1
# [19] = target: Neu5Ac(a2-3)Gal(b1-3)[Neu5Ac(a2-6)]GalNAc
# Summary of the method: as §1
# [20] = target: Neu5Ac(a2-3)Gal(b1-3)[Neu5Ac(a2-6)]GlcNAc(b1-3)Gal(b1-4)Glc
# Summary of the method: as §1
# [21] = target: Neu5Ac(a2-3)Gal(b1-4)Glc
# Summary of the method: as §1
# [22] = target: Neu5Ac(a2-3)Gal(b1-4)GlcNAc
# Summary of the method: as §1
# [23] = target: Neu5Ac(a2-3)Gal(b1-4)GlcNAc(b1-2)Man(a1-3)[Neu5Ac(a2-3)Gal(b1-4)GlcNAc(b1-2)Man(a1-6)]Man(b1-4)GlcNAc(b1-4)[Fuc(a1-6)]GlcNAc
# Summary of the method: as §1
# [24] = target: Neu5Ac(a2-3)Gal(b1-4)GlcNAc(b1-3)Gal(b1-4)Glc
# Summary of the method: as §1
# [25] = target: Neu5Ac(a2-3)Gal(b1-4)GlcNAc6S(b1-3)Gal6S(b1-3)GlcNAc6S
# Summary of the method: as §1
# [26] = target: Neu5Ac(a2-3)Gal(b1-4)[Fuc(a1-3)]GlcNAc
# Summary of the method: as §1
# [27] = target: Neu5Ac(a2-3)Gal(b1-4)[Fuc(a1-3)]GlcNAc(b1-3)Gal
# Summary of the method: as §1
# [28] = target: Neu5Ac(a2-3)Gal(b1-4)[Fuc(a1-3)]GlcNAc(b1-3)Gal(b1-4)Glc
# Summary of the method: as §1
# [29] = target: Neu5Ac(a2-3)Gal(b1-4)[Fuc(a1-3)]GlcNAc(b1-3)Gal(b1-4)[Fuc(a1-3)]GlcNAc(b1-3)Gal(b1-4)Glc
# Summary of the method: as §1
# [30] = target: Neu5Ac(a2-3)Gal(b1-4)[Fuc(a1-3)]GlcNAc6S(b1-3)Gal(b1-4)Glc
# Summary of the method: as §1
# [31] = target: Neu5Ac(a2-3)Gal6S(b1-4)[Fuc(a1-3)]GlcNAc(b1-3)Gal(b1-4)Glc
# Summary of the method: as §1
# [32] = target: Neu5Ac(a2-3)Gal6S(b1-4)[Fuc(a1-3)]GlcNAc6S(b1-3)Gal(b1-4)Glc
# Summary of the method: as §1
# [33] = target: Neu5Ac(a2-3)[GalNAc(b1-4)]Gal(b1-3)GalNAc(b1-4)[Neu5Ac(a2-3)]Gal(b1-4)Glc
# Summary of the method: as §1
# [34] = target: Neu5Ac(a2-3)[GalNAc(b1-4)]Gal(b1-4)Glc
# Summary of the method: as §1
# [35] = target: Neu5Ac(a2-6)Gal(b1-3)GlcNAc(b1-3)[Fuc(a1-3)[Gal(b1-4)]GlcNAc(b1-6)]Gal(b1-4)Glc
# Summary of the method: as §1
# [36] = target: Neu5Ac(a2-6)Gal(b1-3)GlcNAc(b1-3)[Gal(b1-4)GlcNAc(b1-6)]Gal(b1-4)Glc
# Summary of the method: as §1
# [37] = target: Neu5Ac(a2-6)Gal(b1-4)Glc
# Summary of the method: as §1
# [38] = target: Neu5Ac(a2-6)Gal(b1-4)GlcNAc
# Summary of the method: as §1
# [39] = target: Neu5Ac(a2-6)Gal(b1-4)GlcNAc(b1-2)Man(a1-3)[Neu5Ac(a2-6)Gal(b1-4)GlcNAc(b1-2)Man(a1-6)]Man(b1-4)GlcNAc(b1-4)GlcNAc
# Summary of the method: as §1
# [40] = target: Neu5Ac(a2-6)Gal(b1-4)GlcNAc(b1-2)Man(a1-3)[Neu5Gc(a2-6)Gal(b1-4)GlcNAc(b1-2)Man(a1-6)]Man(b1-4)GlcNAc(b1-4)GlcNAc
# Summary of the method: as §1
# [41] = target: Neu5Ac(a2-6)Gal(b1-4)GlcNAc(b1-2)[Neu5Ac(a2-3)Gal(b1-4)GlcNAc(b1-4)]Man(a1-3)[Neu5Ac(a2-3)Gal(b1-4)GlcNAc(b1-2)Man(a1-6)]Man(b1-4)GlcNAc(b1-4)GlcNAc
# Summary of the method: as §1
# [42] = target: Neu5Ac(a2-6)Gal(b1-4)GlcNAc(b1-3)Gal(b1-4)Glc
# Summary of the method: as §1
# [43] = target: Neu5Ac(a2-6)Gal(b1-4)GlcNAc(b1-3)Gal(b1-4)[Fuc(a1-3)]Glc
# Summary of the method: as §1
# [44] = target: Neu5Ac(a2-6)Gal(b1-4)GlcNAc(b1-3)[Neu5Ac(a2-6)Gal(b1-4)GlcNAc(b1-6)]Gal(b1-4)Glc
# Summary of the method: as §1
# [45] = target: Neu5Ac(a2-6)Gal(b1-4)GlcNAc(b1-6)[Gal(b1-3)GlcNAc(b1-3)]Gal(b1-4)Glc
# Summary of the method: as §1
binder,measurement,setting,value
B1,glycan array binding signal (z-score),[1],-0.317
same,glycan array binding signal (z-score),[2],-0.323
same,glycan array binding signal (z-score),[3],-0.302
same,glycan array binding signal (z-score),[4],-0.323
same,glycan array binding signal (z-score),[5],-0.279
same,glycan array binding signal (z-score),[6],-0.317
same,glycan array binding signal (z-score),[7],-0.315
same,glycan array binding signal (z-score),[8],-0.323
same,glycan array binding signal (z-score),[9],-0.31
same,glycan array binding signal (z-score),[10],-0.323
same,glycan array binding signal (z-score),[11],-0.323
same,glycan array binding signal (z-score),[12],-0.191
same,glycan array binding signal (z-score),[13],-0.043
same,glycan array binding signal (z-score),[14],-0.323
same,glycan array binding signal (z-score),[15],-0.321
same,glycan array binding signal (z-score),[16],-0.323
same,glycan array binding signal (z-score),[17],-0.323
same,glycan array binding signal (z-score),[18],-0.323
same,glycan array binding signal (z-score),[19],-0.323
same,glycan array binding signal (z-score),[20],-0.323
same,glycan array binding signal (z-score),[21],-0.32
same,glycan array binding signal (z-score),[22],-0.312
same,glycan array binding signal (z-score),[23],-0.323
same,glycan array binding signal (z-score),[24],-0.323
same,glycan array binding signal (z-score),[25],-0.291
same,glycan array binding signal (z-score),[26],-0.323
same,glycan array binding signal (z-score),[27],-0.323
same,glycan array binding signal (z-score),[28],-0.323
same,glycan array binding signal (z-score),[29],-0.323
same,glycan array binding signal (z-score),[30],-0.323
same,glycan array binding signal (z-score),[31],-0.323
same,glycan array binding signal (z-score),[32],-0.323
same,glycan array binding signal (z-score),[33],-0.323
same,glycan array binding signal (z-score),[34],-0.311
same,glycan array binding signal (z-score),[35],-0.317
same,glycan array binding signal (z-score),[36],-0.093
same,glycan array binding signal (z-score),[37],-0.319
same,glycan array binding signal (z-score),[38],-0.32
same,glycan array binding signal (z-score),[39],-0.323
same,glycan array binding signal (z-score),[40],-0.323
same,glycan array binding signal (z-score),[41],-0.304
same,glycan array binding signal (z-score),[42],-0.321
same,glycan array binding signal (z-score),[43],-0.319
same,glycan array binding signal (z-score),[44],-0.323
same,glycan array binding signal (z-score),[45],0.909

# — the supplement of paper PMC8728848
